Test results taken from a collection of fitness landscapes (doi:10.1126/science.1257360).
Some of the results follow.

B1: PhoQ; a variant is named by its letters at X, in order, P23837 (parent)
chain: MKKLLRLFFPLSLRVRFLLATAAVVLVLSLAYGMVALIGYSVSFDKTTFRLLRGESNLFYTLAKWENNKLHVELPENIDKQSPTMTLIYDENGQLLWAQRDVPWLMKMIQPDWLKSNGFHEIEADVNDTSLLLSGDHSIQQQLQEVREDDDDAEMTHSVAVNVYPATSRMPKLTIVVVDTIPVELKSSYMVWSWFIYVLSANLLLVIPLLWVAAWWSLRPIEALAKEVRELEEHNRELLNPATTRELTSLVRNLNRLLKSERERYDKYRTTLTDLTHSLKTPLXXLQXXLRSLRSEKMSVSDAEPVMLEQISRISQQIGYYLHRASMRGGTLLSRELHPVAPLLDNLTSALNKVYQRKGVNISLDISPEISFVGEQNDFVEVMGNVLDNACKYCLEFVEISARQTDEHLYIVVEDDGPGIPLSKREVIFDRGQRVDTLRPGQGVGLAVAREITEQYEGKIVAGESMLGGARMEVIFGRQHSAPKDE

Variants of: B1
Experiment: enrichment ratio after two sorts for PhoP signalling (ratio (wild type AVST 3.29)); higher = more functional
Settings: with PhoP (E. coli)

| Variant | enrichment ratio |
| --- | --- |
| IMVM | ≤ 0.25 |
| ALVE | ≤ 0.25 |
| SFPI | ≤ 0.25 |
| ESAI | ≤ 0.25 |
| AIFY | ≤ 0.25 |
| GQQL | ≤ 0.25 |
| VGVR | ≤ 0.25 |
| FDET | ≤ 0.25 |
| SDCG | 3.08 |
| DPRD | ≤ 0.25 |
| LHEN | ≤ 0.25 |
| KNSR | ≤ 0.25 |
| ASYR | ≤ 0.25 |
| NYMC | ≤ 0.25 |
| GYRH | ≤ 0.25 |
| DYPN | ≤ 0.25 |
| AFDG | ≤ 0.25 |
| FPYW | ≤ 0.25 |
| YKCP | ≤ 0.25 |
| PMIH | ≤ 0.25 |
| SINR | 4.44 |
| PWMK | ≤ 0.25 |
| GDAA | ≤ 0.25 |
| SILG | 8.57 |

| Variant | enrichment ratio |
| --- | --- |
| LQCQ | ≤ 0.25 |
| ARGT | ≤ 0.25 |
| LNYC | ≤ 0.25 |
| RLVW | ≤ 0.25 |
| IYMN | ≤ 0.25 |
| RLLA | ≤ 0.25 |
| YHRA | ≤ 0.25 |
| FNGS | ≤ 0.25 |
| KFYI | ≤ 0.25 |
| VWCR | ≤ 0.25 |
| MTMS | ≤ 0.25 |
| PSQN | ≤ 0.25 |
| IELQ | ≤ 0.25 |
| MVAK | 5.7 |
| KGTR | ≤ 0.25 |
| GWVH | ≤ 0.25 |
| YKYI | ≤ 0.25 |
| VDLK | ≤ 0.25 |
| NGGV | ≤ 0.25 |
| QKRF | ≤ 0.25 |
| YTLV | 15.7 |
| VADH | ≤ 0.25 |
| REVE | ≤ 0.25 |
| EIHV | ≤ 0.25 |

| Variant | enrichment ratio |
| --- | --- |
| LPCN | ≤ 0.25 |
| HDEE | ≤ 0.25 |
| KLPM | ≤ 0.25 |
| AQFA | ≤ 0.25 |
| DQGV | ≤ 0.25 |
| NFKL | ≤ 0.25 |
| PGNG | ≤ 0.25 |
| YDNV | ≤ 0.25 |
| MNCT | ≤ 0.25 |
| VSTP | ≤ 0.25 |
| GNWE | ≤ 0.25 |
| KQSN | ≤ 0.25 |
| HMAP | ≤ 0.25 |
| ANHL | ≤ 0.25 |
| QDFT | ≤ 0.25 |
| ICKH | ≤ 0.25 |
| QLDP | ≤ 0.25 |
| GFYY | ≤ 0.25 |
| PKGE | ≤ 0.25 |
| THAL | 7.07 |
| YATN | ≤ 0.25 |
| RPIQ | ≤ 0.25 |
| PMWE | ≤ 0.25 |
| KGEA | ≤ 0.25 |

| Variant | enrichment ratio |
| --- | --- |
| NFYI | ≤ 0.25 |
| YDEG | ≤ 0.25 |
| AYLF | 2.34 |
| AGRG | ≤ 0.25 |
| MQKS | ≤ 0.25 |
| DNRG | ≤ 0.25 |
| VNTV | 0.761 |
| PDTW | ≤ 0.25 |
| DKDF | ≤ 0.25 |
| PKYG | ≤ 0.25 |
| VMIA | ≤ 0.25 |
| ENTY | ≤ 0.25 |
| QWVC | ≤ 0.25 |
| RAFK | ≤ 0.25 |
| MFRY | ≤ 0.25 |
| AMES | ≤ 0.25 |
| HPVC | ≤ 0.25 |
| LKRF | ≤ 0.25 |
| DAIE | ≤ 0.25 |
| SCIE | ≤ 0.25 |
| RQVS | ≤ 0.25 |
| IMCY | ≤ 0.25 |
| AQKC | ≤ 0.25 |
| FKPE | ≤ 0.25 |

| Variant | enrichment ratio |
| --- | --- |
| IDAR | ≤ 0.25 |
| KLVM | ≤ 0.25 |
| HICH | ≤ 0.25 |
| IQKR | ≤ 0.25 |
| EEHT | ≤ 0.25 |
| TNRS | ≤ 0.25 |
| LQPS | ≤ 0.25 |
| EIPQ | ≤ 0.25 |
| GDGY | ≤ 0.25 |
| GMSK | ≤ 0.25 |
| KSKI | ≤ 0.25 |
| ACYV | ≤ 0.25 |
| HVQW | ≤ 0.25 |
| MGMA | 0.253 |
| LGIE | ≤ 0.25 |
| WLPN | ≤ 0.25 |
| GCLF | 13.2 |
| FQHL | ≤ 0.25 |
| KDLC | ≤ 0.25 |
| ILSY | ≤ 0.25 |
| YDVG | ≤ 0.25 |
| VNWQ | ≤ 0.25 |
| KVVL | ≤ 0.25 |
| NGRL | ≤ 0.25 |

| Variant | enrichment ratio |
| --- | --- |
| WHWW | ≤ 0.25 |
| IAAW | ≤ 0.25 |
| EKFN | ≤ 0.25 |
| INRL | ≤ 0.25 |
| DMET | ≤ 0.25 |
| FAWD | ≤ 0.25 |
| NQCC | ≤ 0.25 |
| RLMK | ≤ 0.25 |
| MPNE | ≤ 0.25 |
| TVAF | 4.5 |
| SDHG | ≤ 0.25 |
| FDGM | ≤ 0.25 |
| YGSV | 0.666 |
| HHKC | ≤ 0.25 |
| NQWA | ≤ 0.25 |
| ITST | ≤ 0.25 |
| MRSF | ≤ 0.25 |
| KDDL | ≤ 0.25 |
| HIVF | ≤ 0.25 |
| GHWN | ≤ 0.25 |
| TAIW | ≤ 0.25 |
| MNQE | ≤ 0.25 |
| ICYE | ≤ 0.25 |
| CLPW | ≤ 0.25 |

| Variant | enrichment ratio |
| --- | --- |
| SSNN | ≤ 0.25 |
| AMYI | 0.253 |
| PEYI | ≤ 0.25 |
| LLFI | ≤ 0.25 |
| MTVN | ≤ 0.25 |
| CHSL | ≤ 0.25 |
| TCPS | ≤ 0.25 |
| PQLH | ≤ 0.25 |
| TSLW | ≤ 0.25 |
| LGIL | ≤ 0.25 |
| GNTN | ≤ 0.25 |
| QMRP | ≤ 0.25 |
| SNYT | ≤ 0.25 |
| VFGK | ≤ 0.25 |
| VNKD | ≤ 0.25 |
| EIMC | ≤ 0.25 |
| NRPW | ≤ 0.25 |
| LRQV | ≤ 0.25 |
| TFFD | ≤ 0.25 |
| DHIQ | ≤ 0.25 |
| RDQA | ≤ 0.25 |
| RIIK | ≤ 0.25 |
| MEEY | ≤ 0.25 |
| TQTI | 10.9 |

| Variant | enrichment ratio |
| --- | --- |
| RCLF | ≤ 0.25 |
| IRRM | ≤ 0.25 |
| PNAA | ≤ 0.25 |
| LHAP | ≤ 0.25 |
| LAQP | ≤ 0.25 |
| MMYT | ≤ 0.25 |
| QDVN | ≤ 0.25 |
| PVFG | ≤ 0.25 |
| FNLN | ≤ 0.25 |
| MGCH | 3.22 |
| MHPL | ≤ 0.25 |
| LREW | ≤ 0.25 |
| KPIA | ≤ 0.25 |
| MSWF | 2.84 |
| WNRK | ≤ 0.25 |
| TIKW | ≤ 0.25 |
| VNQY | ≤ 0.25 |
| PLYY | ≤ 0.25 |
| WPGM | ≤ 0.25 |
| VTMT | ≤ 0.25 |
| KEFR | ≤ 0.25 |
| YWRE | ≤ 0.25 |
| WLLC | ≤ 0.25 |
| PSAV | ≤ 0.25 |

| Variant | enrichment ratio |
| --- | --- |
| WDGG | ≤ 0.25 |
| NHRG | ≤ 0.25 |
| IDRM | ≤ 0.25 |
| VGKN | ≤ 0.25 |
| CFLI | ≤ 0.25 |
| YALG | 5.75 |
| NKNF | ≤ 0.25 |
| VTHK | ≤ 0.25 |
| LDYK | ≤ 0.25 |
| IQIL | ≤ 0.25 |
| PHYD | ≤ 0.25 |
| SVAM | 8.22 |
| VVKL | ≤ 0.25 |
| FMNI | ≤ 0.25 |
| AKVT | 12.6 |
| HEIN | ≤ 0.25 |
| SWGK | ≤ 0.25 |
| THMN | 12.7 |
| GATW | ≤ 0.25 |
| DVAS | ≤ 0.25 |
| DFAK | ≤ 0.25 |
| AVYF | ≤ 0.25 |
| ETPG | ≤ 0.25 |
| LFSC | ≤ 0.25 |

| Variant | enrichment ratio |
| --- | --- |
| ASCM | 11.6 |
| MTDL | ≤ 0.25 |
| DNHC | ≤ 0.25 |
| VGWE | ≤ 0.25 |
| LQAK | ≤ 0.25 |
| INYR | ≤ 0.25 |
| HTKL | ≤ 0.25 |
| DDNH | ≤ 0.25 |
| TYHW | ≤ 0.25 |
| WKWD | ≤ 0.25 |
| VNSC | ≤ 0.25 |
| DHFP | ≤ 0.25 |
| KRLW | ≤ 0.25 |
| DASY | ≤ 0.25 |
| KYYL | ≤ 0.25 |
| FNYM | ≤ 0.25 |
| GGVL | 7.68 |
| LTWG | ≤ 0.25 |
| GSMA | 1.36 |
| WHAG | ≤ 0.25 |
| DHLW | ≤ 0.25 |
| YDPV | ≤ 0.25 |
| MFLV | ≤ 0.25 |
| SEQY | 4.45 |

| Variant | enrichment ratio |
| --- | --- |
| MLWE | ≤ 0.25 |
| SMIK | ≤ 0.25 |
| QISG | 4.76 |
| KHHV | ≤ 0.25 |
| NVPH | ≤ 0.25 |
| DAQA | ≤ 0.25 |
| LMYI | ≤ 0.25 |
| GQGC | ≤ 0.25 |
| EDPY | ≤ 0.25 |
| VHRH | ≤ 0.25 |
| VLHC | ≤ 0.25 |
| TYHP | ≤ 0.25 |
| YYDT | ≤ 0.25 |
| EDIQ | ≤ 0.25 |
| KEFT | ≤ 0.25 |
| PGFY | ≤ 0.25 |
| LHHC | ≤ 0.25 |
| WDEL | ≤ 0.25 |
| FPDF | ≤ 0.25 |
| QYEG | ≤ 0.25 |
| TNYA | ≤ 0.25 |
| FHTW | 1.17 |
| PDMW | ≤ 0.25 |
| DSQR | ≤ 0.25 |

| Variant | enrichment ratio |
| --- | --- |
| VSAP | ≤ 0.25 |
| TNEV | ≤ 0.25 |
| WHLD | ≤ 0.25 |
| ARAS | ≤ 0.25 |
| GHVQ | ≤ 0.25 |
| YQKM | ≤ 0.25 |
| HEFP | ≤ 0.25 |
| GGTT | ≤ 0.25 |
| FHSR | ≤ 0.25 |
| YKPA | ≤ 0.25 |
| QATF | ≤ 0.25 |
| MSMC | 7.95 |
| DKPI | ≤ 0.25 |
| KLPY | ≤ 0.25 |
| MPNR | ≤ 0.25 |
| NVRP | ≤ 0.25 |
| PPAT | ≤ 0.25 |
| VKCR | ≤ 0.25 |
| IMMC | ≤ 0.25 |
| FCSH | ≤ 0.25 |
| VYGK | ≤ 0.25 |
| SQKH | ≤ 0.25 |
| EYRH | ≤ 0.25 |
| LTMS | ≤ 0.25 |

| Variant | enrichment ratio |
| --- | --- |
| VGFN | ≤ 0.25 |
| YHTA | 1.57 |
| KPSQ | ≤ 0.25 |
| ADFN | ≤ 0.25 |
| VCYY | ≤ 0.25 |
| HEVN | ≤ 0.25 |
| WQGF | ≤ 0.25 |
| VWRY | ≤ 0.25 |
| KNPC | ≤ 0.25 |
| VRFR | ≤ 0.25 |
| NYQG | ≤ 0.25 |
| YNVM | ≤ 0.25 |
| HHAV | ≤ 0.25 |
| FYRR | ≤ 0.25 |
| MEFL | 8.98 |
| TGRL | ≤ 0.25 |
| WKCK | ≤ 0.25 |
| RQYN | ≤ 0.25 |
